Assay results taken from PubChem BioAssay AID504332 (National Center for Advancing Translational Sciences (NCATS), 2011).
Out of some 350,000 compounds screened, about 31,000 (8.9%) were called active. This list was built around the results that the source calls inconclusive (neither active nor inactive); the mix of calls is not that of the screen. Calls follow the shape of the dose curve; as a rule, active = well fitted inhibition curve with a large enough effect; inconclusive = small, poorly fitted or top-dose-only effect; inactive = no such curve, though single readings can be large or run the other way. Potencies beside an inconclusive call are fits to weak or partial responses and may not hold up.
% is scaled to controls: 0 for no effect and ±100 for the full control effect; potency is read from the fitted curve at half-maximal effect; tags tell the direction and shape of the fitted curve.
Also: nearly all actives have a fitted effect of over 75% in size.

These molecules were tested against Histone-lysine N-methyltransferase EHMT2 (Homo sapiens) (UniProt Q96KQ7) (assay: qHTS Assay for Inhibitors of Histone Lysine Methyltransferase G9a). Details: G9a H3K9 monomethylation, AlphaScreen, 2 h; activity, negative = inhibition: at 59 µM (top of the series) unless noted.
UniProt Q96KQ7, sequence (Q96KQ7 whole entry, looked up): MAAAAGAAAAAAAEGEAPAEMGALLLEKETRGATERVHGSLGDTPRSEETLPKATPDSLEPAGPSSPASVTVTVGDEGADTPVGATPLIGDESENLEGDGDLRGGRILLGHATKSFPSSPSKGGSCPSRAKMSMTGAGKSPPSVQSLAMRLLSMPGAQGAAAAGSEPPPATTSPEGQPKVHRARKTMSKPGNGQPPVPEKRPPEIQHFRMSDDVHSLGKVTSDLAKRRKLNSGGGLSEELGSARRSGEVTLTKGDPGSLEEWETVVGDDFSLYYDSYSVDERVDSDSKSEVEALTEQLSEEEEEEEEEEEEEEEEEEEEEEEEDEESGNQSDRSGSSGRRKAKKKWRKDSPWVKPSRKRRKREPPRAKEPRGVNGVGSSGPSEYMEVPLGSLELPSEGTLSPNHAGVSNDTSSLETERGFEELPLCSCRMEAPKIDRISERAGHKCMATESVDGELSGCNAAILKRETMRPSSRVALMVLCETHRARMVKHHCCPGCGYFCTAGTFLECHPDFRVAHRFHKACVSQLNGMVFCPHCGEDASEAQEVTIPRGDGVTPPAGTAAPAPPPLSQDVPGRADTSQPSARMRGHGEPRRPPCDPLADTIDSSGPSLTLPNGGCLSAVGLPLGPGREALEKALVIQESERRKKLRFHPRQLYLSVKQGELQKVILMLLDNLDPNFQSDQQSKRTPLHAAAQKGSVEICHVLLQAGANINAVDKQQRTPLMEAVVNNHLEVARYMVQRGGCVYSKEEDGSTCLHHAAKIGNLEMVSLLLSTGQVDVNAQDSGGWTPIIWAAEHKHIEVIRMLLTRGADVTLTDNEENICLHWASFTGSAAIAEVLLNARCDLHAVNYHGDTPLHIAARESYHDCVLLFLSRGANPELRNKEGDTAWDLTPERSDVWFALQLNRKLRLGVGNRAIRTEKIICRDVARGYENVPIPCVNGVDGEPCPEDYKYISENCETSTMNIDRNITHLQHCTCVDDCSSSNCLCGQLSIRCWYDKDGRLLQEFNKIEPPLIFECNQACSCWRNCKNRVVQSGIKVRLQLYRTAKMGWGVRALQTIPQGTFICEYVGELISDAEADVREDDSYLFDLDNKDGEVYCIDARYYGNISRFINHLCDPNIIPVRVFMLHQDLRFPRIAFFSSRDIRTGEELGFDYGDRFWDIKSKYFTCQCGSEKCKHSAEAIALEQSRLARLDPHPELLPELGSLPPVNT
Method in brief: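 Compounds were preincubated with 20 nM G9a for 15 min, after which biotinylated H3K9 peptide (500 nM) and SAM (20 uM) started a 2 h room-temperature reaction. Monomethylated product was quantified by antibody-based AlphaScreen chemiluminescence.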
`CCCCNc1cc(C)nc(NCc2ccccc2)n1` was tested, and the “activity, negative = inhibition” value was inactive: -17.2% [at 102 µM].
With `COC(=O)c1cccc(CN2C(=O)SC(Nc3ccc(C)cc3)C2=O)c1` (configuration not stated) the “activity, negative = inhibition” value was inactive: 9.94%.
`C=Cc1ccc(Cn2c(SCC(=O)N3CCN(c4ccc(F)cc4)CC3)nc3ccccc32)cc1` was tested, and the Potency was inconclusive: 5.01 µM [inhibitor, partial curve, poor fit].
For `O=[N+]([O-])c1ccc(Cl)c(/C=N/n2c(-c3cccnc3)n[nH]c2=S)c1`, the Potency was active: 5.62 µM.
`COCCn1nnnc1C(c1ccccc1)N1CCN(Cc2ccc3c(c2)OCO3)CC1` (configuration not stated) was tested, and the Potency was inconclusive: 89.1 µM [inhibitor, single point].
`Cc1cc2ccccc2cc1CN1CCCCC1` was tested, and the “activity, negative = inhibition” value was inactive: 13.5% [at 102 µM].
With `S=c1[nH]nc(-c2ccccc2)n1/N=C/c1cccs1` the Potency was active: 0.562 µM.
`O=C(N/N=C\c1cccnc1)c1cc(-c2ccc(Cl)s2)[nH]n1` was tested, and the Potency was active: 31.6 µM.
With `O=C(CNCc1ccccc1Cl)Nc1ccc(C(=O)N2CCCCC2)cc1` the Potency was active: 5.62 µM.
`CCN(Cc1ccccc1)c1ccc(/C=N/N=C(N)N)cc1` was tested, and the Potency was inconclusive: 20 µM [inhibitor, single point].
For `COC(=O)c1c(C(=O)OC)c(-c2ccc(F)cc2)n2c1CS(=O)C2` (configuration not stated), the Potency was inconclusive: 0.501 µM [inhibitor, partial curve, poor fit].
In the case of `COc1ccc(OC)c(S(=O)(=O)N/N=C(/C)c2c[nH]c3ccccc23)c1`, the Potency is reported as inconclusive: 89.1 µM [inhibitor, single point].
In the case of `S=c1[nH]nc(Cc2ccc(Br)cc2)n1/N=C/c1ccc(Cl)cc1`, the Potency is reported as inconclusive: 10 µM [inhibitor, full curve, poor fit].
With `CCC1(c2ccc(F)cc2)NC(=O)N(CC(=O)Nc2ccccc2Cl)C1=O` (configuration not stated) the “activity, negative = inhibition” value was inactive: -11.2% [at 102 µM].
`Cc1ccccc1-c1nc(Nc2ccncc2)c2ccccc2n1` was tested, and the activity, negative = inhibition was inactive: -2.32% [at 0.501 µM].
`Cc1cccc2sc(N(CCN(C)C)C(=O)/C=C/c3cccs3)nc12` was tested, and the Potency was inconclusive: 28.2 µM [inhibitor, single point].
For `CC(=O)c1c(C)oc2ccc(NS(=O)(=O)c3ccc(O)c(C(=O)O)c3)cc12`, the Potency was inconclusive: 56.2 µM [inhibitor, partial curve, poor fit].
In the case of `Clc1ccc(-c2nnc3sc(-c4ccco4)nn23)c(Cl)c1`, the activity, negative = inhibition is reported as inactive: -27.3% [at 12.7 µM].
In the case of `CC(NC(=O)c1ccco1)C12CC3CC(CC(C3)C1)C2` (configuration not stated), the Potency is reported as inconclusive: 3.55 µM [inhibitor, single point].
With `COCCCN1CC23C=CC(O2)C(C(=O)O)C3C1=O` (configuration not stated) the Potency was inconclusive: 79.4 µM [inhibitor, single point].
In the case of `CCn1c(CN2CCN(c3ccc(OC)cc3)CC2)nc2cc(S(=O)(=O)N(C)C)ccc21`, the Potency is reported as inconclusive: 89.1 µM [inhibitor, single point].
`NC(=S)Nc1ccc(Oc2ccc(NC(N)=S)cc2)cc1` was tested, and the “activity, negative = inhibition” value was inactive: -4.21%.
With `N#CC1=C(Nc2ccccc2)SC=C(c2ccccc2)N=C1N1CCOCC1` the Potency was active: 50.1 µM.
`COc1ccc(Cl)cc1S(=O)(=O)N1CCN(c2ccc(F)cc2)CC1` was tested, and the activity, negative = inhibition was inconclusive: -56% [inhibitor].
In the case of `CCC(=O)Nc1cccc(-c2nc3cc(C)ccc3o2)c1`, the “activity, negative = inhibition” value is reported as inactive: 5.08%.
For `CCOC(=O)c1c(NC(=O)c2cc(CC)on2)sc(C(C)=O)c1C`, the Potency was inconclusive: 39.8 µM [inhibitor, partial curve, poor fit].
`Cc1cccc(C(=O)NCCNC(=O)c2ccccn2)c1` was tested, and the Potency was inconclusive: 50.1 µM [inhibitor, single point].
`CCOC(=O)CCC(=O)N1CCOCCOCCN(C(=O)CCC(=O)OCC)CCOCCOCC1` was tested, and the Potency was inconclusive: 31.6 µM [inhibitor, single point].
In the case of `CCOC(=O)c1ccc(NC(=O)CCc2nc3cccnc3n2Cc2cccs2)cc1`, the “activity, negative = inhibition” value is reported as inactive: 2.02%.
In the case of `COc1ccc(N2CCN(C(=O)C3CCN(c4nc5ccc(C)cc5[nH]4)CC3)CC2)cc1`, the Potency is reported as inconclusive: 39.8 µM [inhibitor, single point].
With `COc1ccc(Br)cc1CN1CCN(Cc2c[nH]c3ccccc23)CC1` the Potency was active: 8.91 µM.
`CSc1ccc(CCNC(=O)c2c(C)oc3ncn(C)c(=O)c23)cc1` was tested, and the “activity, negative = inhibition” value was inactive: -3.02%.
`Cc1cc(C)n(C(=O)Cc2cn3ccsc3n2)n1` was tested, and the Potency was inconclusive: 6.31 µM [inhibitor, full curve, poor fit].
In the case of `COC(=O)c1ccccc1NC(=O)c1cc2ccccc2o1`, the “activity, negative = inhibition” value is reported as inactive: 24.8% [at 102 µM].
With `O=c1cc(OCc2ccccc2)cc[nH]1` the Potency was inconclusive: 3.98 µM [inhibitor, partial curve, poor fit].
For `CCN(CC)C(=O)Cn1cnc2sc(C(=O)Nc3cc(OC)c(OC)c(OC)c3)c(C)c2c1=O`, the “activity, negative = inhibition” value was inactive: 10.8%.
With `CC(=O)N(/N=C/c1ccc([N+](=O)[O-])o1)c1nc2ccccc2c(=O)n1-c1ccccc1` the activity, negative = inhibition was inconclusive: -51.9% [inhibitor] [at 12.7 µM].
For `Cc1ccc(C(=O)NNc2c3ccccc3nc3ccccc23)cc1`, the Potency was active: 17.8 µM.
For `O=C(NCCCO)C(=O)Nc1cc2c3c(c1)CCC(=O)N3CCC2`, the “activity, negative = inhibition” value was inactive: 21.7% [at 102 µM].
In the case of `O=C(COC(=O)c1ccc(Cl)cc1)NC(=O)NC1CCCC1`, the Potency is reported as inconclusive: 79.4 µM [inhibitor, single point].
`COc1ccc(-c2cc(=O)oc3cc(OCc4nn[nH]n4)ccc23)cc1` was tested, and the Potency was inconclusive: 89.1 µM [inhibitor, single point].
With `Cc1ccc(/C=N/N2CCN(Cc3ccc(Cl)cc3)CC2)o1` the Potency was active: 50.1 µM.
With `Cc1ccc(S(=O)(=O)c2cc3ccccc3oc2=Nc2ccc3c(c2)OCO3)cc1` the Potency was inconclusive: 3.16 µM [inhibitor, full curve, poor fit].
`CC1CCN(S(=O)(=O)c2csc(C(N)=O)c2)CC1` was tested, and the “activity, negative = inhibition” value was inactive: -1.49%.
In the case of `COc1ccc(C(=O)Nc2ccc(-c3n[nH]c(=S)o3)cc2)cc1OC`, the Potency is reported as active: 1.58 µM.
For `CCC[C@@H]1C[C@@]1(CCC)[C@@H](NP(=O)(c1ccccc1)c1ccccc1)c1ccc(C(=O)OC)cc1`, the Potency was inconclusive: 39.8 µM [inhibitor, partial curve, poor fit].
With `Cc1[nH]c2ccccc2c1C(=O)COC(=O)C1CC(=O)N(Cc2ccccc2)C1` (configuration not stated) the Potency was inconclusive: 56.2 µM [inhibitor, partial curve, poor fit].
